Experimental data from the supplement of paper PMC8728848.
Some of the results follow.

Legend:
Assay in all cases: glycan array binding signal (z-score within array); higher = stronger binding
Details in all cases: glycan notation: IUPAC condensed, linker removed
GlcNAc(b1-3)Man = molecular target: GlcNAc(b1-3)Man
In short: (§1)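 Arrays were curated from the Consortium for Functional Glycomics database, 3228 in total, and kept only where the protein sequence was available. Binding is expressed as a within-array Z-score. This score was averaged across arrays of the same protein sequence at different concentrations or buffers and across linkers, and negative values can be read as non-binding.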

[1] = molecular target: GlcNAc(b1-3)[GlcNAc(b1-4)][GlcNAc(b1-6)]GlcNAc
In short: as §1

[2] = molecular target: GlcNAc(b1-3)[GlcNAc(b1-6)]Gal(b1-4)GlcNAc
In short: as §1

[3] = molecular target: GlcNAc(b1-3)[GlcNAc(b1-6)]GalNAc
In short: as §1

[4] = molecular target: GlcNAc(b1-4)Gal(b1-4)GlcNAc
In short: as §1

GlcNAc(b1-4)GlcNAc = molecular target: GlcNAc(b1-4)GlcNAc
In short: as §1

[5] = molecular target: GlcNAc(b1-4)GlcNAc(b1-4)GlcNAc
In short: as §1

[6] = molecular target: GlcNAc(b1-4)GlcNAc(b1-4)GlcNAc(b1-4)GlcNAc(b1-4)GlcNAc
In short: as §1

[7] = molecular target: GlcNAc(b1-4)GlcNAc(b1-4)GlcNAc(b1-4)GlcNAc(b1-4)GlcNAc(b1-4)GlcNAc
In short: as §1

[8] = molecular target: GlcNAc(b1-4)[GlcNAc(b1-6)]GalNAc
In short: as §1

[9] = molecular target: GlcNAc(b1-6)Gal(b1-4)GlcNAc
In short: as §1

GlcNAc(b1-6)GalNAc = molecular target: GlcNAc(b1-6)GalNAc
In short: as §1

[10] = molecular target: GlcNAc6S(b1-3)Gal(b1-4)GlcNAc
In short: as §1

Kdn(a2-3)Gal(b1-3)GalNAc = molecular target: Kdn(a2-3)Gal(b1-3)GalNAc
In short: as §1

Kdn(a2-3)Gal(b1-3)GlcNAc = molecular target: Kdn(a2-3)Gal(b1-3)GlcNAc
In short: as §1

Kdn(a2-3)Gal(b1-4)Glc = molecular target: Kdn(a2-3)Gal(b1-4)Glc
In short: as §1

Kdn(a2-3)Gal(b1-4)GlcNAc = molecular target: Kdn(a2-3)Gal(b1-4)GlcNAc
In short: as §1

[11] = molecular target: Kdn(a2-3)Gal(b1-4)[Fuc(a1-3)]GlcNAc
In short: as §1

Kdn(a2-6)Gal(b1-4)GlcNAc = molecular target: Kdn(a2-6)Gal(b1-4)GlcNAc
In short: as §1

[12] = molecular target: Man(a1-2)Man(a1-2)Man(a1-3)Man
In short: as §1

[13] = molecular target: Man(a1-2)Man(a1-2)Man(a1-6)[Man(a1-3)]Man
In short: as §1

Man(a1-2)Man(a1-3)Man = molecular target: Man(a1-2)Man(a1-3)Man
In short: as §1

[14] = molecular target: Man(a1-2)Man(a1-3)[Man(a1-2)Man(a1-6)]Man
In short: as §1

[15] = molecular target: Man(a1-2)Man(a1-3)[Man(a1-2)Man(a1-6)]Man(a1-6)[Man(a1-2)Man(a1-2)Man(a1-3)]Man
In short: as §1

[16] = molecular target: Man(a1-2)Man(a1-3)[Man(a1-2)Man(a1-6)]Man(a1-6)[Man(a1-2)Man(a1-2)Man(a1-3)]Man(b1-4)GlcNAc(b1-4)GlcNAc
In short: as §1

[17] = molecular target: Man(a1-2)Man(a1-3)[Man(a1-6)]Man(a1-6)[Man(a1-2)Man(a1-3)]Man(b1-4)GlcNAc(b1-4)GlcNAc
In short: as §1

[18] = molecular target: Man(a1-2)Man(a1-6)[Man(a1-3)]Man(a1-6)[Man(a1-2)Man(a1-2)Man(a1-3)]Man
In short: as §1

[19] = molecular target: Man(a1-2)Man(a1-6)[Man(a1-3)]Man(a1-6)[Man(a1-2)Man(a1-2)Man(a1-3)]Man(b1-4)GlcNAc(b1-4)GlcNAc
In short: as §1

Man(a1-3)[Man(a1-6)]Man = molecular target: Man(a1-3)[Man(a1-6)]Man
In short: as §1

[20] = molecular target: Man(a1-3)[Man(a1-6)]Man(a1-6)[Man(a1-2)Man(a1-3)]Man(b1-4)GlcNAc(b1-4)GlcNAc
In short: as §1

[21] = molecular target: Man(a1-3)[Man(a1-6)]Man(a1-6)[Man(a1-3)]Man
In short: as §1

[22] = molecular target: Man(a1-3)[Man(a1-6)]Man(a1-6)[Man(a1-3)]Man(b1-4)GlcNAc(b1-4)GlcNAc
In short: as §1

[23] = molecular target: Man(a1-3)[Man(a1-6)]Man(b1-4)GlcNAc(b1-4)GlcNAc
In short: as §1

[24] = molecular target: Man(a1-3)[Man(a1-6)]Man(b1-4)GlcNAc(b1-4)[Fuc(a1-6)]GlcNAc
In short: as §1

Man(a1-6)Man = molecular target: Man(a1-6)Man
In short: as §1

Man(b1-4)GlcNAc = molecular target: Man(b1-4)GlcNAc
In short: as §1

MurNAc(b1-4)GlcNAc = molecular target: MurNAc(b1-4)GlcNAc
In short: as §1

Neu5Ac(a2-3)Gal = molecular target: Neu5Ac(a2-3)Gal
In short: as §1

B1: PX9961V-pdi-562-26-562 (Parabacteroides distasonis) (protein)
chain: EIFSEITTDNYYQNSNNIYAALVNNYAKAFSTGWSDARYFLQEVTADQLMIPTRGKHGYNGGEYVRLHEHKWTVEENFVYNGWAAPFQGIALCNNTLSDFENLDFSTFKLTEETKNEYIAELRALRVWNYMFLIDFFRHVPIVTDIEEVKAQSTPLEVFNFMESELLAILPDLPKNRGVSRFDQAGVASILVRLYLNAEKWIGISKYDECEQMAQAILDGKYGEYSIDPDYRGPFRSGINGYRSKENIMEFAIKKNYFEASWLYNMWMHYQDRYSLDNDWQGWNGGNLAPSRDLYGNLYQDKLGMPFEKFPDGDIRKKAFRVISNDGDYEGFFLMGTQYKFDYEKGYGFTDEVITGTEEYNGKPLVYVDQVGRFSEGETGLAKGSHVIYGEENTGYRLIKFPWLPQSKDLFQMNSIPEIRLAEIYYSLAECKYRSGDKIGAARLLDVVRKRYYKAEDWSKFSYESNISKLTDDEFVDELGREFIGERHRRIDLIRWNRFSEGAWWDKTPDATNQDVFPIPYRALNANPLLKQTTAGF
glycan array binding signal (z-score) (GlcNAc(b1-3)Man): -0.452
glycan array binding signal (z-score) [1]: -0.199
glycan array binding signal (z-score) [2]: -0.776
glycan array binding signal (z-score) [3]: -0.317
glycan array binding signal (z-score) [4]: -0.145
glycan array binding signal (z-score) (GlcNAc(b1-4)GlcNAc): -0.216
glycan array binding signal (z-score) [5]: 0.165
glycan array binding signal (z-score) [6]: 0.049
glycan array binding signal (z-score) [7]: -0.685
glycan array binding signal (z-score) [8]: -0.379
glycan array binding signal (z-score) [9]: -0.14
glycan array binding signal (z-score) (GlcNAc(b1-6)GalNAc): 0.201
glycan array binding signal (z-score) [10]: 0.315
glycan array binding signal (z-score) (Kdn(a2-3)Gal(b1-3)GalNAc): 0.345
glycan array binding signal (z-score) (Kdn(a2-3)Gal(b1-3)GlcNAc): -0.726
glycan array binding signal (z-score) (Kdn(a2-3)Gal(b1-4)Glc): 1.04
glycan array binding signal (z-score) (Kdn(a2-3)Gal(b1-4)GlcNAc): -0.461
glycan array binding signal (z-score) [11]: 2.11
glycan array binding signal (z-score) (Kdn(a2-6)Gal(b1-4)GlcNAc): 0.151
glycan array binding signal (z-score) [12]: -0.624
glycan array binding signal (z-score) [13]: -0.665
glycan array binding signal (z-score) (Man(a1-2)Man(a1-3)Man): -0.467
glycan array binding signal (z-score) [14]: -0.66
glycan array binding signal (z-score) [15]: -0.5
glycan array binding signal (z-score) [16]: 0.278
glycan array binding signal (z-score) [17]: 0.132
glycan array binding signal (z-score) [18]: -0.464
glycan array binding signal (z-score) [19]: -0.121
glycan array binding signal (z-score) (Man(a1-3)[Man(a1-6)]Man): -0.443
glycan array binding signal (z-score) [20]: 0.928
glycan array binding signal (z-score) [21]: 0.428
glycan array binding signal (z-score) [22]: -0.022
glycan array binding signal (z-score) [23]: -0.564
glycan array binding signal (z-score) [24]: 0.015
glycan array binding signal (z-score) (Man(a1-6)Man): 0.193
glycan array binding signal (z-score) (Man(b1-4)GlcNAc): -0.517
glycan array binding signal (z-score) (MurNAc(b1-4)GlcNAc): -0.496
glycan array binding signal (z-score) (Neu5Ac(a2-3)Gal): -0.711
